Measured values from the supplement of paper PMC12009370.
The list shows a part of the results. Single values are uncertain, as repeats are few or missing.

Columns and labels:
IMR-32 [1] = assay: drug sensitivity score (DSS), single drug with vehicle (DSS (score)); higher = more cytotoxic; extreme values may be limits of the assay; conditions: 72 h; co-treatment: vehicle (DMSO)
SK-N-AS [2] = assay: as above; conditions: 72 h; co-treatment: vehicle (DMSO)
SK-N-AS [3] = assay: drug sensitivity score (DSS) in combination with SL-176 (DSS (score)); higher = more cytotoxic; extreme values may be limits of the assay; conditions: 72 h; co-treatment: SL-176 11.2 uM (IC25 in IMR-32)
IMR-32 [4] = assay: as above; conditions: 72 h; co-treatment: SL-176 11.2 uM (IC25 in IMR-32)
SK-N-AS [5] = assay: drug sensitivity score (DSS) in combination with GSK2830371 (DSS (score)); neuroblastoma lines; SL-176 and GSK2830371 are WIP1 inhibitors; higher = more cytotoxic; extreme values may be limits of the assay; conditions: 72 h; co-treatment: GSK2830371 at IC25 in IMR-32
IMR-32 [6] = assay: as above; conditions: 72 h; co-treatment: GSK2830371 at IC25 in IMR-32
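For drug sensitivity score (DSS) in combination with GSK2830371 in this document: neuroblastoma cells in 384-well plates, each compound at five concentrations, luminescence read-out, DSS derived from fitted concentration-response curve combining IC50 with minimum and maximum inhibition.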
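For drug sensitivity score (DSS) in combination with SL-176 in this document: cells in 384-well plates, luminescence read-out, each screening drug at five concentrations, DSS derived from the fitted concentration-response curve combining IC50 with minimum and maximum inhibition.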
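For drug sensitivity score (DSS), single drug with vehicle in this document: 384-well screen with five concentrations per compound and a luminescence read-out, DSS computed from the fitted dose-response curve combining IC50 with minimum and maximum inhibition.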

SMILES	drug sensitivity score (IMR-32 [1])	drug sensitivity score (SK-N-AS [2])	drug sensitivity score (SK-N-AS [3])	drug sensitivity score (IMR-32 [4])	drug sensitivity score (SK-N-AS [5])	drug sensitivity score (IMR-32 [6])
C[C@@H]1C=C2C(=O)O[C@@H]3CC[C@H](C1)[C@]23O [Galiellalactone]	9.6	7.5	8	6.5	8	8.4
COc1cc(N2CCC(N3CCN(C)CC3)CC2)ccc1Nc1ncc(Cl)c(Nc2ccccc2P(C)(C)=O)n1 [Brigatinib]	0	3.7	4.6	0	3.4	0
Nc1nc(N)c2nc(-c3cccc(O)c3)c(-c3cccc(O)c3)nc2n1	2	0	0	0	0	0.9
Cc1c(-c2c(-c3ccc(F)o3)sc3ncnc(O[C@H](Cc4ccccc4OCc4ccnn4CC(F)(F)F)C(=O)O)c23)ccc(OCCN2CCN(C)CC2)c1Cl	3.6	1.9	3.3	5.7	2.1	4.1
CCn1c(C(=O)N(C2CC2)C2CC2)cc2c3c(ncn3C)c(Nc3cc(C)n(C)n3)nc21	1.7	1.9	0.4	0	1	0.4
OC[C@H]1O[C@@H](n2cnc3c2N=CNC[C@H]3O)C[C@@H]1O [Pentostatin]	0	0	0	0	0	0
CC(=O)c1cnc2ccc(-c3cc(Cl)c(O)c(Cl)c3)nc2c1N[C@H]1CC[C@H](CN(C)C)CC1	26.6	16.1	16	26.7	16.2	27.9
COc1cc(Br)c(Nc2nc(-c3c(C)nc4ncccn34)cs2)c(Br)c1	12.2	5.7	5.2	11.1	6.2	15.3
C=CC(=O)Nc1cccc(Oc2nc(Nc3ccc(N4CCN(C)CC4)cc3)nc3ccsc23)c1 [Olmutinib]	0	0.1	0.4	0	0	0.5
C[C@@H]1CCN(C(=O)CC#N)C[C@@H]1N(C)c1ncnc2[nH]ccc12 [Tofacitinib]	11	0.1	0	0	0.1	0
Cc1ccc(-c2cc(C(F)(F)F)nn2-c2ccc(S(N)(=O)=O)cc2)cc1 [Celecoxib]	0	0	0	0	0	0.7
CC(C)Oc1ccc(C(=O)N[C@H](CNC(=O)CN(C)C)Cc2ccc(-c3cn4cccc([C@H](C)O)c4n3)cc2)cc1Cl	25.4	3.3	10.8	25.7	9.7	30.4
Cc1ccc(NC(=O)c2ccc(CN3CCN(C)CC3)cc2)cc1Nc1nc(-c2cccnc2)cs1 [Masitinib]	6.6	4.2	4.1	6.9	3.8	8.7
COc1cc2c(Oc3ccc4[nH]c(C)cc4c3F)ncnc2cc1OCCCN1CCCC1 [Cediranib]	0	0	0	0	0	0
C[C@@H]1C[C@H]2[C@@H]3CCC4=CC(=O)C=C[C@]4(C)[C@@]3(F)[C@@H](O)C[C@]2(C)[C@@]1(O)C(=O)CO [Dexamethasone]	0	0	0	0.4	0	0
Cc1[nH]nc(C(F)(F)F)c1Cc1sc2c(c1C(=O)N1C[C@](C)(O)CO1)c(=O)n(C)c(=O)n2C(C)C	9.8	4.4	4.8	8.6	5.1	10.5
C/C(=C\c1csc(C)n1)[C@@H]1C[C@@H]2O[C@]2(C)CCC[C@H](C)[C@H](O)[C@@H](C)C(=O)C(C)(C)[C@@H](O)CC(=O)N1 [Ixabepilone]	6.2	5.3	4.4	6.9	5.6	4.8
CNS(=O)(=O)Nc1nccc(Cc2c(C)c3ccc(Oc4ncccn4)cc3oc2=O)c1F	0	4	4.1	0	4.6	3.3
CC1CCC(n2c3cnccc3c3cnc(Nc4ccc5c(n4)CCN(C(=O)CO)C5)nc32)CC1 (stereo not drawn)	2.3	5.1	4.4	0	5.4	4
Cc1cnc(NC(=O)Nc2cc(Br)c(C)cc2OC[C@@H]2CNCCO2)cn1 [Rabusertib]	2.7	3.9	3.1	2.1	4.7	4.1
O=C(O)CCCCC(CCSCc1ccccc1)SCc1ccccc1 (stereo not drawn)	0	0	0	0	0	0
Cc1nc(-c2cn3c(n2)-c2ccc(-c4cnn(C(C)(C)C(N)=O)c4)cc2OCC3)n(C(C)C)n1 [Taselisib]	1	3.5	5.5	4.5	4.3	5.6
CCCc1cc(C)[nH]c(=O)c1CNC(=O)c1cc(-c2ccnc(N3CCN(C)CC3)c2)cc2c1cnn2C(C)C	0	0	0	0	0	0
Cc1ccc(C(=O)N(CCCN)[C@@H](c2oc3cc(Cl)ccc3c(=O)c2Cc2ccccc2)C(C)C)cc1	6.8	3	4.6	6.4	3.6	8.3

SMILES	drug sensitivity score (IMR-32 [1])	drug sensitivity score (SK-N-AS [2])	drug sensitivity score (SK-N-AS [3])	drug sensitivity score (IMR-32 [4])	drug sensitivity score (SK-N-AS [5])	drug sensitivity score (IMR-32 [6])
O=c1ncn2nc(Sc3ccc(F)cc3F)ccc2c1-c1c(Cl)cccc1Cl [Neflamapimod]	2.7	0	0.5	0	0.1	2.8
COc1ccc(-c2ccc3ncc4c(c3c2)n(-c2ccc(N3CCNCC3)c(C(F)(F)F)c2)c(=O)n4C)cn1	12.8	19.3	18.2	13.9	19.5	13.3
Cc1cc(F)c(C(=O)Nc2cccc(-c3nncn3C(C)C)n2)cc1-n1cnc(C2CC2)c1 [Selonsertib]	0	0	0	0	0	0
CC(C)c1c(C(=O)Nc2ccccc2)c(-c2ccccc2)c(-c2ccc(F)cc2)n1CC[C@@H](O)C[C@@H](O)CC(=O)O [Atorvastatin]	7.3	0	0.2	5.1	0	6.8
Cc1cc(Nc2cc(CN3CCOCC3)c3nc(C)c(Cc4ccc(Cl)cc4F)n3n2)n[nH]1 [Gandotinib]	18.9	5.6	5.7	18	5.9	19.7
CNC(=O)c1cc(Oc2ccc(NC(=O)Nc3ccc(Cl)c(C(F)(F)F)c3)cc2)ccn1 [Sorafenib]	0	0	0	0	0	0
CC(C)c1cc(C(=O)N2Cc3ccc(CN4CCN(C)CC4)cc3C2)c(O)cc1O [Onalespib]	15.2	12.5	15.2	11.3	12.7	11
COc1ccc(-c2nc(N3CCOCC3)c3sc(CN(C)c4ncc(C(=O)NO)cn4)cc3n2)cn1	45.8	37.8	37	44.1	37.8	45.8
Cc1nc(C(=O)NCC(=O)O)c(O)c2ccc(Oc3ccccc3)cc12 [Roxadustat]	0	0	0	0	0	0.1
CCc1cnn2c(NCc3ccc[n+]([O-])c3)cc(N3CCCC[C@H]3CCO)nc12 [Dinaciclib]	27.9	19.8	19.9	30.4	20.8	30.6
CC(=O)N(O)CCCCCNC(=O)CCC(=O)N(O)CCCCCNC(=O)CCC(=O)N(O)CCCCCN [Deferoxamine]	9.6	5	4	12.1	3.8	15
c1cn2cc(-c3ccc4cn[nH]c4c3)nc(Nc3ccc(N4CCOCC4)cc3)c2n1 [Entospletinib]	2	1.7	2.4	0	2.3	3.4
N#CCNC(=O)c1ccc(-c2ccnc(Nc3ccc(N4CCOCC4)cc3)n2)cc1 [Momelotinib]	6.6	4.6	4.7	5.3	4.8	5.6
Nc1nccc(-c2c(-c3ccc(F)cc3)ncn2C2CCCCC2)n1	3.3	0.2	0.1	4	1.2	7.1
CS(=O)(=O)c1ccc(-c2cnc(N)c(C(=O)Nc3ccccc3)n2)cc1	3	0.2	0	0	2.6	0
O=C(Nc1nc2cccc(-c3ccc(CN4CCS(=O)(=O)CC4)cc3)n2n1)C1CC1 [Filgotinib]	9.3	3.7	2.3	8.8	2.9	9.5
C[C@H]1C[C@@H]2[C@H]([C@@H](O)C[C@@]3(C)[C@H]2CC[C@]3(O)C(=O)CO)[C@@]2(C)C=CC(=O)C=C12 [Methylprednisolone]	0	0	0	0.6	0	0
CO[C@H]1CC[C@H](N2C(=O)CNc3ncc(-c4ccc(C(C)(C)O)nc4)nc32)CC1	8.7	6.2	5.2	7	6.5	8.2
COc1cc(OC2CCN(C)CC2)ccc1Nc1ncc2c(n1)n(C1CCCC1)c(=O)n2C	5.1	3.2	3.7	8.7	3	8.8
Nc1ncnc2c1c(COc1cccc(Cl)c1)nn2C1CCOCC1	0	0	0	0	0	0.2
CC(C)(C)c1cnc(CSc2cnc(NC(=O)C3CCNCC3)s2)o1	25.5	20.3	19.1	28.9	19.7	27
CC(C)(C)Cn1c(N)nc2ccc(-c3[nH]c(C(C)(C)C)nc3-c3ccc(F)cc3)nc21 [Ralimetinib]	5.9	1.8	4.8	15.8	2.9	8.3
C[C@@H]1CN(CC(=O)Nc2ccc3c(c2)Cc2cccc(-c4cc(=O)cc(N5CCOCC5)o4)c2S3)C[C@H](C)O1	2.1	2.5	2.8	13.4	3.5	1.4
CCCOc1ccn2c(C(C)=O)cc(-c3ccccc3S(C)(=O)=O)c2c1	0	0	0	0	0	0
